Each structure is given as a SMILES string. The whole screen tested about 310,000 compounds, of which about 2,200 (0.71%) showed an effect of 50% or more. Effects have a minus sign here. The list shows a part of the results.

From paper PMC4336329 (PLoS ONE, 2015) come the findings set out here.

human ether-à-go-go-related gene (hERG) potassium channel, sequence (Q12809 whole entry, looked up): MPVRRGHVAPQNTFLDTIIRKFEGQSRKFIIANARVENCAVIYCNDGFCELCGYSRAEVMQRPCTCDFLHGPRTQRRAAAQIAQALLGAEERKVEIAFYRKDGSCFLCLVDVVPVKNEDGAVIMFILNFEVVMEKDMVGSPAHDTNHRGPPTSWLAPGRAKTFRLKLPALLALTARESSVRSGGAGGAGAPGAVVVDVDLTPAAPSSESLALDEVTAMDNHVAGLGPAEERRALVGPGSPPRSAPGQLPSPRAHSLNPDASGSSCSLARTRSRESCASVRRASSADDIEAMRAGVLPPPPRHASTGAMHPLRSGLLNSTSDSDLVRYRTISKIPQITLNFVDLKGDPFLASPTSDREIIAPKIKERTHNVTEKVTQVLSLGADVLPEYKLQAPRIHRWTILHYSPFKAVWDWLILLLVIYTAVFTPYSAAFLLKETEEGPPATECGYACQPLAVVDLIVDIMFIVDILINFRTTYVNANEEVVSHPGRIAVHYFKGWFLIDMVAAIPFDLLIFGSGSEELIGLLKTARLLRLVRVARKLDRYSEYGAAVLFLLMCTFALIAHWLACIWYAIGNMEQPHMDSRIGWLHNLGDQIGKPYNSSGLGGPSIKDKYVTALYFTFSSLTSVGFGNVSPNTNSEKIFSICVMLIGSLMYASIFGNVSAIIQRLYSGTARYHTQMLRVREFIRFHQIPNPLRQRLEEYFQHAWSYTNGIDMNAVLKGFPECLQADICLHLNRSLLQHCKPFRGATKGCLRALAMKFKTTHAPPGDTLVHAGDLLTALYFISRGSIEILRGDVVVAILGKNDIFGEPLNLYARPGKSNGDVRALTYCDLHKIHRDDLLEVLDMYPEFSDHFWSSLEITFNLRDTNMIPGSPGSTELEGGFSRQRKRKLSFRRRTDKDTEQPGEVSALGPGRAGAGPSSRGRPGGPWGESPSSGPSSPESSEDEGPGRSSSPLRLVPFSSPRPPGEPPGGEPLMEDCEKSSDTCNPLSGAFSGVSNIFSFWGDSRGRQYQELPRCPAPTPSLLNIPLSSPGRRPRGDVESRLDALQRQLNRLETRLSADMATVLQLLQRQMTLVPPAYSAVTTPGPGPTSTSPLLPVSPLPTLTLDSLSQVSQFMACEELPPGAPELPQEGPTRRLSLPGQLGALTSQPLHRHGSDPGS

This test addresses human ether-à-go-go-related gene (hERG) potassium channel (human, UniProt Q12809). Put plainly: primary screen, population patch clamp on CHO cells stably expressing hERG.
Regarding `COc1ccccc1NC(=O)C1Cc2ccccc2CN1C(=O)c1ccco1` (stereo not shown), the “hERG current change (%, negative = inhibition) at 1uM” value came out at 7.78%.

Take `COc1ccc(-c2nc3ccc(C)cn3c2NCc2ccccc2)cc1SC1CCCCC1.O=C(O)C(F)(F)F`: the “hERG current change (%, negative = inhibition) at 1uM” value was 8.17%.

As for `Cc1ccc(NC(=O)COC(=O)c2cccnc2)c(C)c1`, the “hERG current change (%, negative = inhibition) at 1uM” value was found to be 16.2%.

On to `CC(C)CC(C)N1CCC(n2nccc2NC(=O)CCc2ccccc2)CC1` (stereo not shown), for which the “hERG current change (%, negative = inhibition) at 1uM” value amounted to 9.07%.

As for `Cc1ccc(S(=O)(=O)N2CCOCC2)cc1C(=O)OCC(=O)c1ccc(Br)cc1`, the “hERG current change (%, negative = inhibition) at 1uM” value came out at 10.7%.

As to `Cn1c(=O)oc2cc(NC(=O)CCl)ccc21`, the “hERG current change (%, negative = inhibition) at 1uM” value stood at 6.38%.

Turning to `CCOc1ccc2nc(N(CCN(C)C)C(=O)/C=C/c3cccs3)sc2c1.Cl`, the “hERG current change (%, negative = inhibition) at 1uM” value was 6.02%.

For the compound `COc1cc(NC(=O)c2ccc3c(c2)OCO3)ccc1NC(=O)C(C)C`, the “hERG current change (%, negative = inhibition) at 1uM” value is on record as 13.6%.

For `COc1ccc(OC(C)C(=O)Nc2cccc(F)c2)cc1` (stereo not shown), the “hERG current change (%, negative = inhibition) at 1uM” value is 12.7%.

In the case of `O=C(NCCCN1CCOCC1)c1cc(S(=O)(=O)N2CCN(c3ccccc3)CC2)ccc1Cl`, the “hERG current change (%, negative = inhibition) at 1uM” value is -12.1%.

Turning to `CCN1CCN(c2cc(=O)n(-c3cc(Cl)ccc3C)c(=O)[nH]2)CC1`, the “hERG current change (%, negative = inhibition) at 1uM” value was -0.632%.

Take `COc1ccc(S(=O)(=O)Cc2ccc(C(=O)N3CCN(c4cccc(C)c4)C(C)C3)o2)cc1` (stereo not shown): the “hERG current change (%, negative = inhibition) at 1uM” value is recorded as -7.82%.

As to `CSc1cccc(N/C(=N/S(=O)(=O)c2ccccc2)NN)c1`, the “hERG current change (%, negative = inhibition) at 1uM” value is 5.31%.

Regarding `CCn1c(C(=O)NC(C)c2ccc3c(c2)OCCO3)cc2sccc21` (stereo not shown), the “hERG current change (%, negative = inhibition) at 1uM” value was 7.01%.

For `COc1ccc(Nc2ncc(C(=O)N3CCN(Cc4ccccc4)CC3)c3ccccc23)cc1`, the “hERG current change (%, negative = inhibition) at 1uM” value is reported as 6.09%.

For `COC(=O)C(C(=O)Nc1ccccc1C)C1CCCC1` (stereo not shown), the “hERG current change (%, negative = inhibition) at 1uM” value is listed as 15.9%.

Take `O=C(CCC(=O)c1ccc(-c2ccccc2)cc1)Nc1cccnc1`: the “hERG current change (%, negative = inhibition) at 1uM” value came to 4.5%.

As for `CC(C)(C)c1cnnn1-c1ccc(NC(=O)c2ccc3c(c2)OCO3)cc1`, the “hERG current change (%, negative = inhibition) at 1uM” value was -0.754%.

On to `COC(=O)c1nc(-c2ccccc2)nc(-c2ccccc2)c1C(=O)OC`, for which the “hERG current change (%, negative = inhibition) at 1uM” value was -14.1%.

For the compound `CCC1CN(C(=O)N2CCC(C(=O)NCc3ccco3)CC2)c2cc(C)ccc2O1` (stereo not shown), the “hERG current change (%, negative = inhibition) at 1uM” value came out at 2.69%.

For the compound `O=C(Cc1ccc(-c2ccccc2)cc1)NCc1ccccc1`, the “hERG current change (%, negative = inhibition) at 1uM” value is recorded as 22%.

Turning to `O=C(N/N=C/c1c(O)ccc2ccccc12)c1[nH]ncc1Br`, the “hERG current change (%, negative = inhibition) at 1uM” value is recorded as 6.16%.

On to `Cc1ccc(C(=O)CSc2nnc(COc3ccc(C#N)cc3)n2-c2ccccc2)cc1`, for which the “hERG current change (%, negative = inhibition) at 1uM” value is 11.8%.

For the compound `CC(=O)C(N=Nc1ccccc1)(Sc1nnc(-c2ccccc2)n1-c1ccccc1)C(=O)Nc1ccccc1` (stereo not shown), the “hERG current change (%, negative = inhibition) at 1uM” value was 6.26%.

For the compound `CC(=O)N1CCN(c2ccc(S(C)(=O)=O)cc2[N+](=O)[O-])CC1`, the “hERG current change (%, negative = inhibition) at 1uM” value worked out at 6.42%.

For the compound `CN(C)c1ccc(C2Nc3cccc4cccc(c34)N2)cc1`, the “hERG current change (%, negative = inhibition) at 1uM” value was 14.2%.

For `O=C(NNC(=O)c1cc(O)c(O)c(O)c1)NC1CCCCC1`, the “hERG current change (%, negative = inhibition) at 1uM” value amounted to 5.06%.

Consider `O=S(=O)(c1ccccc1Cl)N1CCCC(c2nc(-c3cccnc3)no2)C1` (stereo not shown), for which the “hERG current change (%, negative = inhibition) at 1uM” value is on record as -32.1%.

As to `Cc1nc2c3cnn(-c4ccccc4)c3ncn2n1`, the “hERG current change (%, negative = inhibition) at 1uM” value worked out at 18.3%.

With `CC1O[C@@H](O[C@H](C)CC/C=C/C(=O)O)C(O)C[C@H]1O` (stereo partly shown), the “hERG current change (%, negative = inhibition) at 1uM” value came to 8.02%.

In the case of `CCOc1ccc(C(=O)NC2CC3CCCC(C2)N3Cc2ccccc2)cc1` (stereo not shown), the “hERG current change (%, negative = inhibition) at 1uM” value is -20.4%.

With `CSCCC(NC(=O)c1ccc(Cl)c([N+](=O)[O-])c1)C(=O)N1CCN(C/C=C/c2ccccc2)CC1` (stereo not shown), the “hERG current change (%, negative = inhibition) at 1uM” value is -1.51%.

As for `O=C(Nc1ccc2c(c1)OCO2)C1Cc2ccccc2CN1S(=O)(=O)c1cccs1` (stereo not shown), the “hERG current change (%, negative = inhibition) at 1uM” value is listed as 11.7%.

For the compound `Cc1ccc(-n2ncc3c(=O)[nH]c(SCC(=O)N4CCCc5ccccc54)nc32)cc1`, the “hERG current change (%, negative = inhibition) at 1uM” value is reported as 8.81%.

As for `Cc1cc(C)n(C(=O)CCC2COc3ccccc3O2)n1` (stereo not shown), the “hERG current change (%, negative = inhibition) at 1uM” value was -19.1%.

For `COc1ccc(-c2csc3ncnc(NCCO)c23)cc1`, the “hERG current change (%, negative = inhibition) at 1uM” value came out at 12.2%.

For the compound `CCc1cc(C(=O)OC)c(NC(=O)C2CC(=O)NN2Cc2ccccc2)s1` (stereo not shown), the “hERG current change (%, negative = inhibition) at 1uM” value is recorded as -9.03%.

Turning to `Cc1ccc(NC(=O)NC2C(NC(=O)Nc3ccc(C)cc3)N(C)C(=O)N2C)cc1` (stereo not shown), the “hERG current change (%, negative = inhibition) at 1uM” value is given as 9.78%.

As to `O=C(c1cccc(C(F)(F)F)c1)N1CCN(c2cc(=O)[nH]nc2-c2ccccc2)CC1`, the “hERG current change (%, negative = inhibition) at 1uM” value worked out at 10.4%.

`O=C(NNc1ncnc2sccc12)c1ccc(Cl)cc1`: the “hERG current change (%, negative = inhibition) at 1uM” value was determined as 12.4%.

Turning to `O=C(c1ccccc1OCc1ccc(Cl)cc1)N1CCN(c2ccccn2)CC1`, the “hERG current change (%, negative = inhibition) at 1uM” value is reported as 1.14%.

For `Cc1ccc(NC(=O)CSc2ccccc2NC(=O)c2ccccc2)cc1Cl`, the “hERG current change (%, negative = inhibition) at 1uM” value turned out to be 1.54%.

On to `O=C(Nc1cccc(S(=O)(=O)N2CCOCC2)c1)C1CCCN(C(=O)c2ccc(Cl)cc2)C1` (stereo not shown), for which the “hERG current change (%, negative = inhibition) at 1uM” value is reported as -2.81%.
